Assay results: the supplement of paper PMC10126150
Sequences with one replicate were seen in a single cluster, so their values are uncertain.
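Also: ATP exposure 15 min at 22 °C before imaging.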

What follows are sequences tested on ATP (assay: switch fluorescence ratio, 500 uM ATP over buffer (Cy3 cluster intensity, sum of 5 cycles each) (fold (ratio)); higher = stronger signal-on switching upon ATP binding; sequences stand for … in TCGTCGGCAGCGTCAGATGTGTATAAGAGACAGTTTTTTTTTTTTTTTTTTTTTTTTT…TC). Details: aptamer strand: ATP DNA aptamer (quencher-CACCTGGGGGAGTATTGCGGAGGAAGG + anchor), 100 nM annealed; ATP concentration: 500 uM; one replicate.
In short: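 Five buffer/ATP imaging cycles were run on Cy3-labelled switching-strand clusters on a modified Illumina MiSeq flow-cell, with NaOH stripping and re-annealing between cycles. In each cycle, clusters annealed to 100 nM quencher-labelled ATP aptamer were imaged in selection buffer, then after 15 min with 500 uM ATP at 22 °C. Per cluster, the fluorescence ratio is summed target-cycle over summed buffer-cycle Cy3 intensity, averaged per switch-domain sequence. Only clusters within 100-1000 RFU were kept.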
Sequence GGGCCAATAG has a switch fluorescence ratio of 1.01. TCCATTGCCA gave a switch fluorescence ratio of 1.09. CCGGAAAATT was tested, and the switch fluorescence ratio was 1.04. GACGGCGGGA was tested, and the switch fluorescence ratio was 1.04. TCCTTGTTGA was tested, and the switch fluorescence ratio was 1.04. With GTAACATGTT the switch fluorescence ratio was 0.983. Work on CCCTTTGATG yielded a switch fluorescence ratio of 0.998. AAAACCTAGG was tested, and the switch fluorescence ratio was 1.06. For ACATTTATGC, the switch fluorescence ratio was 0.953. TTGAGTATAG gave a switch fluorescence ratio of 1. GAGGGGTACA was tested, and the switch fluorescence ratio was 1. With CGTGACTGAG the switch fluorescence ratio was 0.979. For AAGATTGGTC, the switch fluorescence ratio was 0.917. With TCGCAGGCTG the switch fluorescence ratio was 0.934. Work on ACTTGGTCA yielded a switch fluorescence ratio of 1.05. In the case of GTATAAACTT, the switch fluorescence ratio is reported as 1.09. For TTTACGTGCT, the switch fluorescence ratio was 1.08. Work on CCTCTAAGAT yielded a switch fluorescence ratio of 3.29. In the case of TCAGGTGTCG, the switch fluorescence ratio is reported as 0.933. With ACCGGGGCCC the switch fluorescence ratio was 1.07. For CTGATCAGTC, the switch fluorescence ratio was 0.988. ATTAAAAGCG showed a switch fluorescence ratio of 1.01. Work on AAGAGTAACA yielded a switch fluorescence ratio of 1.02. In the case of CATAATGCTA, the switch fluorescence ratio is reported as 1. Work on GTAGGGGATG yielded a switch fluorescence ratio of 0.995. TTAAATGCAG was tested, and the switch fluorescence ratio was 1.03. TTTATATGCC showed a switch fluorescence ratio of 0.993. Sequence GAGAGTTTTA has a switch fluorescence ratio of 0.996. TAAAAACGAT was tested, and the switch fluorescence ratio was 1.02. GGTTGGTGGA was tested, and the switch fluorescence ratio was 0.935. In the case of ACGGATATGA, the switch fluorescence ratio is reported as 1.01. Work on CTTTGGACTT yielded a switch fluorescence ratio of 1.02. CACCGTCGTC showed a switch fluorescence ratio of 0.986. In the case of ACAGAGTTAA, the switch fluorescence ratio is reported as 1.03. For ATGAGTGTCC, the switch fluorescence ratio was 1.06. GATCGCTCC gave a switch fluorescence ratio of 1.18. ATCATTACAA was tested, and the switch fluorescence ratio was 0.969. For CCAACTGGAG, the switch fluorescence ratio was 1.02. CCGCACCATA gave a switch fluorescence ratio of 3.51. GTTGATGCGA gave a switch fluorescence ratio of 1.07. For TGTTTGGTCG, the switch fluorescence ratio was 0.944. Work on ATGTATAGGT yielded a switch fluorescence ratio of 1.03. TAACTCGGTT gave a switch fluorescence ratio of 0.99. For GCGTCAGCAA, the switch fluorescence ratio was 1.03. With TACTTACAG the switch fluorescence ratio was 1.17. For CGAGGCTTCG, the switch fluorescence ratio was 0.994. In the case of CATATACGGA, the switch fluorescence ratio is reported as 1.07. Work on TGAGACTCAC yielded a switch fluorescence ratio of 1.04. With CTAATCATGG the switch fluorescence ratio was 0.957. AGCCATGGAT gave a switch fluorescence ratio of 0.973. In the case of GAAATCTGGG, the switch fluorescence ratio is reported as 0.943. In the case of TGTCACTATA, the switch fluorescence ratio is reported as 1.1. GAATAAGGTG gave a switch fluorescence ratio of 1.28. With TCGGGCAGCT the switch fluorescence ratio was 0.979. TTCGGCCGTA showed a switch fluorescence ratio of 1. GCTAACCTCT was tested, and the switch fluorescence ratio was 1.01. ATCCAAGCT was tested, and the switch fluorescence ratio was 1.05. For AGATACGTTT, the switch fluorescence ratio was 0.989. AAAAGAAGTA was tested, and the switch fluorescence ratio was 1.02. Work on GCGGAACTTA yielded a switch fluorescence ratio of 0.974. GGGAGAGTAG showed a switch fluorescence ratio of 0.975. In the case of CTGAAGATCC, the switch fluorescence ratio is reported as 1.6. For TTTTAGCCTA, the switch fluorescence ratio was 1.12. In the case of TATAATATTG, the switch fluorescence ratio is reported as 0.963. ACAGTTTGGG was tested, and the switch fluorescence ratio was 1.03. GGCCCGATCT showed a switch fluorescence ratio of 0.978. With CGACGGTCTT the switch fluorescence ratio was 1.02. For TTTCTGTTTA, the switch fluorescence ratio was 0.976. For TATTTACTGA, the switch fluorescence ratio was 1.2. TCTTGGCAAT gave a switch fluorescence ratio of 4.46. With GAAACTTTTG the switch fluorescence ratio was 1. In the case of TTACATGCTT, the switch fluorescence ratio is reported as 0.974. Work on ATAAATACTA yielded a switch fluorescence ratio of 0.999. Sequence TTGTGTCCAT has a switch fluorescence ratio of 0.989. For ATAACGCTAA, the switch fluorescence ratio was 1.23. For GAGATTTCTG, the switch fluorescence ratio was 0.922. In the case of TTGCCGCCCC, the switch fluorescence ratio is reported as 1.12. TGCGGTTTGC showed a switch fluorescence ratio of 0.937. AGGCAGGGTG was tested, and the switch fluorescence ratio was 1.05. CTTCTAGCAT was tested, and the switch fluorescence ratio was 1.73. TTCTTAGTAT showed a switch fluorescence ratio of 1.02. Work on GGCCGGGCGG yielded a switch fluorescence ratio of 0.994. For CTGACAAGCA, the switch fluorescence ratio was 2.03. With TACTTTATAA the switch fluorescence ratio was 1.08. CCGGATCGTC showed a switch fluorescence ratio of 1.09. For TAAAGGGCCA, the switch fluorescence ratio was 1.33. With ATCTAACACA the switch fluorescence ratio was 0.989. GGGGGACGGA was tested, and the switch fluorescence ratio was 1.04. With TGTCGGGGTG the switch fluorescence ratio was 0.973. With TCCTGGTTTG the switch fluorescence ratio was 0.994. Sequence ATCGGCCGAA has a switch fluorescence ratio of 0.996. ATACGTCTTA gave a switch fluorescence ratio of 0.998. Work on CAGGAGAATG yielded a switch fluorescence ratio of 1.01. CATGAGTGGG gave a switch fluorescence ratio of 0.967. TTTACAGACA was tested, and the switch fluorescence ratio was 1.13. With CAACGTCACG the switch fluorescence ratio was 1.3. In the case of TATCTGCTAT, the switch fluorescence ratio is reported as 1.1. TCCAATAGGG showed a switch fluorescence ratio of 1.01. Sequence GTGTCTGGTT has a switch fluorescence ratio of 0.977. TGGTCCTCGG gave a switch fluorescence ratio of 1.09. Sequence TGTCTGGTCG has a switch fluorescence ratio of 0.991. For GCCCTAAGG, the switch fluorescence ratio was 1.02. Work on AATCGGGATT yielded a switch fluorescence ratio of 0.948. GCGGTATAAA was tested, and the switch fluorescence ratio was 1.01. CTCCGGACGG was tested, and the switch fluorescence ratio was 1.08. GGGACCGTTA was tested, and the switch fluorescence ratio was 0.977. With TAGCGGCAGA the switch fluorescence ratio was 1.07. Work on CCAGCATCTA yielded a switch fluorescence ratio of 1.18. With GGCCGCTCGG the switch fluorescence ratio was 1.09. Sequence AACAGTGCGG has a switch fluorescence ratio of 1. Work on ATGCACGGGT yielded a switch fluorescence ratio of 1.05. For CGTGCCGGT, the switch fluorescence ratio was 1.04. With GGTTACATAG the switch fluorescence ratio was 1.02. TGACTGACTG was tested, and the switch fluorescence ratio was 0.983. In the case of AAAGTAGTTT, the switch fluorescence ratio is reported as 1.03. CCACACCCAT gave a switch fluorescence ratio of 1.2. Sequence CTCGACGCTT has a switch fluorescence ratio of 1.26. CCCTTGAGTT gave a switch fluorescence ratio of 0.989. GCATATTCGG showed a switch fluorescence ratio of 0.989. TATATCTTGA gave a switch fluorescence ratio of 1. Sequence GCGGCCGATC has a switch fluorescence ratio of 1.03. Work on TTGTGGTAG yielded a switch fluorescence ratio of 1.01. For GTGCCGTGGC, the switch fluorescence ratio was 1. With TCAGATTGAC the switch fluorescence ratio was 0.978. CCCAGTCGGA showed a switch fluorescence ratio of 0.984. GTGATTACCG gave a switch fluorescence ratio of 1.04. In the case of CAAAAGTACC, the switch fluorescence ratio is reported as 1.19. GAGCTAGCGT gave a switch fluorescence ratio of 0.971. Work on GCAAGGAGCC yielded a switch fluorescence ratio of 1.24. For AATACGAGGG, the switch fluorescence ratio was 1.07. In the case of TGGCCAGCGT, the switch fluorescence ratio is reported as 1.02. With TAGTTTTGTT the switch fluorescence ratio was 1.02. AGTCGAATTT gave a switch fluorescence ratio of 0.966. TACCCAGTTT gave a switch fluorescence ratio of 1.08. CGTATTCAAT was tested, and the switch fluorescence ratio was 0.972. With TTCGTCTAA the switch fluorescence ratio was 0.974. In the case of AAATAACCAC, the switch fluorescence ratio is reported as 1.08. TATCTTCCAC showed a switch fluorescence ratio of 1.09. Work on CCCCTTTCCC yielded a switch fluorescence ratio of 1.05. GATAAAAAA gave a switch fluorescence ratio of 1.03. In the case of TATTTTGACC, the switch fluorescence ratio is reported as 0.992. GAGTGGTGG gave a switch fluorescence ratio of 0.915. GCCTTGGGTC was tested, and the switch fluorescence ratio was 0.955. With TTTGCTAACA the switch fluorescence ratio was 1.05. Work on CTGTTCAGCG yielded a switch fluorescence ratio of 1.03. Sequence GGGCTGCAAG has a switch fluorescence ratio of 1.01. CATATATCAC showed a switch fluorescence ratio of 1.04. Sequence TAGAAATCCT has a switch fluorescence ratio of 1.17. In the case of GACTGCGGTT, the switch fluorescence ratio is reported as 1. With TACCAGCTTT the switch fluorescence ratio was 1.01. Sequence GAAAGGGACG has a switch fluorescence ratio of 1.1. ATGATTGAAT gave a switch fluorescence ratio of 0.994. Sequence CAAATTATTC has a switch fluorescence ratio of 0.965. In the case of CGTCCAGGTA, the switch fluorescence ratio is reported as 1.47. AGCCGCAGAA was tested, and the switch fluorescence ratio was 1.57. Work on GTAGTAAAGC yielded a switch fluorescence ratio of 1.18. AAAGCGTAC gave a switch fluorescence ratio of 2.27.
